Laboratory results published in patent US20230159603A1 (XILIO DEVELOPMENT, published 2023).

B1: AK386 (Fc fusion)
chain 1: [human IgG1 Fc with changes left out here]GGGGSGGGGSKIDACKRGDVTVKPSHVILLGSTVNITCSLKPRQGCFHYSRRNKLILYKFDRRINFHHGHSLNSQVTGLPLGTTLFVCKLACINSDEIQICGAEIFVGVAPEQPQNLSCIQKGEQGTVACTWERGRDTHLYTEYTLQLSGPKNLTWQKQCKDIYCDYLDFGINLTPESPESNFTAKVTAVNSLGSSSSLPSTFTFLDIVRPLPPWDIRIKFQKASVSRCTLYWRDEGLVLLNRLRYRPSNSRLWNMVNVTKAKGRHDLLDLKPFTEYEFQISSKLHLYKGSWSDWSESLRAQTPEE
chain 2: DKTHTCPPCPAPELLGGPSVFLFPPKPKDTLMISRTPEVTCVVVDVSHEDPEVKFNWYVDGVEVHNAKTKPREEQYASTYRVVSVLTVLHQDWLNGKEYKCKVSNKALPAPIEKTISKAKGQPREPQVYTLPPCRDELTKNQVSLWCLVKGFYPSDIAVEWESNGQPENNYKTTPPVLDSDGSFFLYSKLTVDKSRWQQGNVFSCSVMHEALHNHYTQKSLSLSPGGGSGGSGGSVPLSLYSGPIWELKKDVYVVELDWYPDAPGEMVVLTCDTPEEDGITWTLDQSSEVLGSGKTLTIQVKEFGDAGQYTCHKGGEVLSHSLLLLHKKEDGIWSTDILKDQKEPKNKTFLRCEAKNYSGRFTCWWLTTISTDLTFSVKSSRGSSDPQGVTCGAATLSAERVRGDNKEYEYSVECQEDSACPAAEESLPIEVMVDAVHKLKYENYTSSFFIRDIIKPDPPKNLQLKPLKNSRQVEVSWEYPDTWSTPHSYFSLTFCVQVQGKSKREKKDRVFTDKTSATVICRKNASISVRAQDRYYSSSWSEWASVPCSGGGGSGGGGSGGGGSRNLPVATPDPGMFPCLHHSQNLLRAVSNMLQKARQTLEFYPCTSEEIDHEDITKDKTSTVEACLPLELTKNESCLNSRETSFITNGSCLASRKTSFMMALCLSSIYEDLKMYQVEFKTMNAKLLMDPKRQIFLDQNMLAVIDELMQALNFNSETVPQKSSLEEPDFYKTKIKLCILLHAFRIRAVTIDRVMSYLNAS
notes: Masked IL-12 heterodimer, IL-12Rβ2 (24-319) mask; tested uncleaved; also called AK386 null
B2: AK920 (Fc fusion)
chain 1: [human IgG1 Fc with changes left out here]PGGSGPKIDACKRGDVTVKPSHVILLGSTVNITCSLKPRQGCFHYSRRNKLILYKFDRRINFHHGHSLNSQVTGLPLGTTLFVCKLACINSDEIQICGAEIFVGVAPEQPQNLSCIQKGEQGTVACTWERGRDTHLYTEYTLQLSGPKNLTWQKQCKDIYCDYLDFGINLTPESPESNFTAKVTAVNSLGSSSSLPSTFTFLDIVRPLPPWDIRIKFQKASVSRSTLYWRDEGLVLLNRLRYRPSNSRLWNMVNVTKAKGRHDLLDLKPFTEYEFQISSKLHLYKGSWSDWSESLRAQTPEE
chain 2: DKTHTCPPCPAPELLGGPSVFLFPPKPKDTLMISRTPEVTCVVVDVSHEDPEVKFNWYVDGVEVHNAKTKPREEQYASTYRVVSVLTVLHQDWLNGKEYKCKVSNKALPAPIEKTISKAKGQPREPQVYTLPPCRDELTKNQVSLWCLVKGFYPSDIAVEWESNGQPENNYKTTPPVLDSDGSFFLYSKLTVDKSRWQQGNVFSCSVMHEALHNHYTQKSLSLSPGGGSGGSRAAAVKSPSGPIWELKKDVYVVELDWYPDAPGEMVVLTCDTPEEDGITWTLDQSSEVLGSGKTLTIQVKEFGDAGQYTCHKGGEVLSHSLLLLHKKEDGIWSTDILKDQKEPKNKTFLRCEAKNYSGRFTCWWLTTISTDLTFSVKSSRGSSDPQGVTCGAATLSAERVRGDNKEYEYSVECQEDSACPAAEESLPIEVMVDAVHKLKYENYTSSFFIRDIIKPDPPKNLQLKPLKNSRQVEVSWEYPDTWSTPHSYFSLTFSVQVQGKDNTEGRVFTDKTSATVICRKNASISVRAQDRYYSSSWSEWASVPCSGGGGSGGGGSGGGGSRNLPVATPDPGMFPCLHHSQNLLRAVSNMLQKARQTLEFYPCTSEEIDHEDITKDKTSTVEACLPLELTKNESCLNSRETSFITNGSCLASRKTSFMMALCLSSIYEDLKMYQVEFKTMNAKLLMDPKRQIFLDQNMLAVIDELMQALNFNSETVPQKSSLEEPDFYKTKIKLCILLHAFRIRAVTIDRVMSYLNAS
B3: AK921 (Fc fusion)
chain 1: [human IgG1 Fc with changes left out here]GGSPGKIDACKRGDVTVKPSHVILLGSTVNITCSLKPRQGCFHYSRRNKLILYKFDRRINFHHGHSLNSQVTGLPLGTTLFVCKLACINSDEIQICGAEIFVGVAPEQPQNLSCIQKGEQGTVACTWERGRDTHLYTEYTLQLSGPKNLTWQKQCKDIYCDYLDFGINLTPESPESNFTAKVTAVNSLGSSSSLPSTFTFLDIVRPLPPWDIRIKFQKASVSRSTLYWRDEGLVLLNRLRYRPSNSRLWNMVNVTKAKGRHDLLDLKPFTEYEFQISSKLHLYKGSWSDWSESLRAQTPEE
chain 2: DKTHTCPPCPAPELLGGPSVFLFPPKPKDTLMISRTPEVTCVVVDVSHEDPEVKFNWYVDGVEVHNAKTKPREEQYASTYRVVSVLTVLHQDWLNGKEYKCKVSNKALPAPIEKTISKAKGQPREPQVYTLPPCRDELTKNQVSLWCLVKGFYPSDIAVEWESNGQPENNYKTTPPVLDSDGSFFLYSKLTVDKSRWQQGNVFSCSVMHEALHNHYTQKSLSLSPGGGSGGSGGSRAAAVKSPSGPIWELKKDVYVVELDWYPDAPGEMVVLTCDTPEEDGITWTLDQSSEVLGSGKTLTIQVKEFGDAGQYTCHKGGEVLSHSLLLLHKKEDGIWSTDILKDQKEPKNKTFLRCEAKNYSGRFTCWWLTTISTDLTFSVKSSRGSSDPQGVTCGAATLSAERVRGDNKEYEYSVECQEDSACPAAEESLPIEVMVDAVHKLKYENYTSSFFIRDIIKPDPPKNLQLKPLKNSRQVEVSWEYPDTWSTPHSYFSLTFSVQVQGKDNTEGRVFTDKTSATVICRKNASISVRAQDRYYSSSWSEWASVPCSGGGGSGGGGSGGGGSRNLPVATPDPGMFPCLHHSQNLLRAVSNMLQKARQTLEFYPCTSEEIDHEDITKDKTSTVEACLPLELTKNESCLNSRETSFITNGSCLASRKTSFMMALCLSSIYEDLKMYQVEFKTMNAKLLMDPKRQIFLDQNMLAVIDELMQALNFNSETVPQKSSLEEPDFYKTKIKLCILLHAFRIRAVTIDRVMSYLNAS
B4: AK924 (Fc fusion)
chain 1: [human IgG1 Fc with changes left out here]GGSGGGSGKIDACKRGDVTVKPSHVILLGSTVNITCSLKPRQGCFHYSRRNKLILYKFDRRINFHHGHSLNSQVTGLPLGTTLFVCKLACINSDEIQICGAEIFVGVAPEQPQNLSCIQKGEQGTVACTWERGRDTHLYTEYTLQLSGPKNLTWQKQCKDIYCDYLDFGINLTPESPESNFTAKVTAVNSLGSSSSLPSTFTFLDIVRPLPPWDIRIKFQKASVSRSTLYWRDEGLVLLNRLRYRPSNSRLWNMVNVTKAKGRHDLLDLKPFTEYEFQISSKLHLYKGSWSDWSESLRAQTPEE
chain 2: B2 chain 2
B5: AK925 (Fc fusion)
chain 1: [human IgG1 Fc with changes left out here]GGSGGGSGKIDACKRGDVTVKPSHVILLGSTVNITCSLKPRQGCFHYSRRNKLILYKFDRRINFHHGHSLNSQVTGLPLGTTLFVCKLACINSDEIQICGAEIFVGVAPEQPQNLSCIQKGEQGTVACTWERGRDTHLYTEYTLQLSGPKNLTWQKQCKDIYCDYLDFGINLTPESPESNFTAKVTAVNSLGSSSSLPSTFTFLDIVRPLPPWDIRIKFQKASVSRSTLYWRDEGLVLLNRLRYRPSNSRLWNMVNVTKAKGRHDLLDLKPFTEYEFQISSKLHLYKGSWSDWSESLRAQTPEE
chain 2: B3 chain 2

biological target: rhIL-12RB1-Fc (human, UniProt P42701 24-545, limits assumed); test: SPR, IL-12 receptor immobilised, IL-12 construct flowed, 25 C, FIGS. 34A-34D
Protocol: Sensor Chips were coated and immobilized with IL-12 receptors. Dilutions of IL-12 constructs were flowed over the chips with the immobilized IL-12 receptors to determine the on rate at 25 degrees C. At equilibrium (approximately 3-4 minutes), the flow buffer was changed to PBST, to determine the off rates over 6 minutes. Between each run the chip was regenerated. The tables represent the SPR data (FIGS. 34 and 35).

Binder | binding result
B1 | no binding

biological target: human IL-12 receptor (IL-12Rβ1 and IL-12Rβ2) on HEK-Blue IL-12 reporter cells (human, UniProt P42701 24-662; Q99665 24-862); test: cell-based or functional assay

Binder | Aklusion (Run 1) | Aklusion (Run 2) | Average Aklusion
B1 | 19.4 fold | 14.9 fold | 17.1 fold
B2 | 45.3 fold | 45.3 fold | 45.3 fold
B3 | 68.9 fold | 54.8 fold | 61.9 fold
B4 | 41.8 fold | 31.1 fold | 36.4 fold
B5 | 40.4 fold | 37.1 fold | 38.7 fold
